# Data from the supplement of paper PMC8728848.
# Some of the results follow.
# Tests used:
# Assay in all cases: glycan array binding signal (z-score within array); higher = stronger binding
# Conditions in all cases: glycan notation: IUPAC condensed, linker removed
# [1] = target: Fuc(a1-2)Gal
# How it was run: (§1)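 Negative Z-scores can be read as non-binding. The Z-score is calculated within each array and then averaged across arrays of one protein sequence at different concentrations or buffers and across linkers. Arrays, 3228 in all, were curated from the Consortium for Functional Glycomics database and kept only where the protein sequence was available.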
# [2] = target: Fuc(a1-2)Gal(b1-3)GalNAc
# How it was run: as §1
# [3] = target: Fuc(a1-2)Gal(b1-3)GalNAc(a1-3)[Fuc(a1-2)]Gal(b1-4)Glc
# How it was run: as §1
# [4] = target: Fuc(a1-2)Gal(b1-3)GalNAc(a1-3)[Fuc(a1-2)]Gal(b1-4)GlcNAc
# How it was run: as §1
# [5] = target: Fuc(a1-2)Gal(b1-3)GalNAc(b1-3)Gal
# How it was run: as §1
# [6] = target: Fuc(a1-2)Gal(b1-3)GalNAc(b1-3)Gal(a1-4)Gal(b1-4)Glc
# How it was run: as §1
# [7] = target: Fuc(a1-2)Gal(b1-3)GalNAc(b1-4)[Neu5Ac(a2-3)]Gal(b1-4)Glc
# How it was run: as §1
# [8] = target: Fuc(a1-2)Gal(b1-3)GlcNAc
# How it was run: as §1
# [9] = target: Fuc(a1-2)Gal(b1-3)GlcNAc(b1-2)Man(a1-3)[Fuc(a1-2)Gal(b1-3)GlcNAc(b1-2)Man(a1-6)]Man(b1-4)GlcNAc(b1-4)GlcNAc
# How it was run: as §1
# [10] = target: Fuc(a1-2)Gal(b1-3)GlcNAc(b1-2)Man(a1-3)[Fuc(a1-2)Gal(b1-3)GlcNAc(b1-2)Man(a1-6)]Man(b1-4)GlcNAc(b1-4)[Fuc(a1-6)]GlcNAc
# How it was run: as §1
# [11] = target: Fuc(a1-2)Gal(b1-3)GlcNAc(b1-3)Gal(b1-4)Glc
# How it was run: as §1
# [12] = target: Fuc(a1-2)Gal(b1-3)GlcNAc(b1-3)GalNAc
# How it was run: as §1
# [13] = target: Fuc(a1-2)Gal(b1-3)GlcNAc(b1-3)[Fuc(a1-2)Gal(b1-3)GlcNAc(b1-6)]GalNAc
# How it was run: as §1
# [14] = target: Fuc(a1-2)Gal(b1-3)GlcNAc(b1-3)[Gal(b1-4)GlcNAc(b1-6)]Gal(b1-4)Glc
# How it was run: as §1
# [15] = target: Fuc(a1-2)Gal(b1-3)GlcNAc(b1-3)[Neu5Ac(a2-6)Gal(b1-4)GlcNAc(b1-6)]Gal(b1-4)Glc
# How it was run: as §1
# [16] = target: Fuc(a1-2)Gal(b1-3)GlcNAc6S
# How it was run: as §1
# [17] = target: Fuc(a1-2)Gal(b1-3)[Fuc(a1-4)]GlcNAc
# How it was run: as §1
# [18] = target: Fuc(a1-2)Gal(b1-3)[Fuc(a1-4)]GlcNAc(b1-2)Man(a1-3)[Fuc(a1-2)Gal(b1-3)[Fuc(a1-4)]GlcNAc(b1-2)Man(a1-3)]Man(b1-4)GlcNAc(b1-4)GlcNAc
# How it was run: as §1
# [19] = target: Fuc(a1-2)Gal(b1-3)[Fuc(a1-4)]GlcNAc(b1-2)Man(a1-3)[Fuc(a1-2)Gal(b1-3)[Fuc(a1-4)]GlcNAc(b1-2)Man(a1-6)]Man(b1-4)GlcNAc(b1-4)[Fuc(a1-6)]GlcNAc(b1-4)[Fuc(a1-6)]GlcNAc
# How it was run: as §1
# [20] = target: Fuc(a1-2)Gal(b1-3)[Fuc(a1-4)]GlcNAc(b1-3)[Fuc(a1-3)[Gal(b1-4)]GlcNAc(b1-6)]Gal(b1-4)Glc
# How it was run: as §1
# [21] = target: Fuc(a1-2)Gal(b1-3)[Fuc(a1-4)]GlcNAc(b1-3)[Gal(b1-4)GlcNAc(b1-6)]Gal(b1-4)Glc
# How it was run: as §1
# [22] = target: Fuc(a1-2)Gal(b1-4)Fuc(a1-3)]GlcNAc(b1-2)Man(a1-3)[Fuc(a1-2)Gal(b1-4)[Fuc(a1-3)]GlcNAc(b1-2)Man(a1-6)]Man(b1-4)GlcNAc(b1-4)GlcNAc
# How it was run: as §1
# [23] = target: Fuc(a1-2)Gal(b1-4)Glc
# How it was run: as §1
# [24] = target: Fuc(a1-2)Gal(b1-4)Glc6S
# How it was run: as §1
# [25] = target: Fuc(a1-2)Gal(b1-4)GlcNAc
# How it was run: as §1
# [26] = target: Fuc(a1-2)Gal(b1-4)GlcNAc(b1-2)Man
# How it was run: as §1
# [27] = target: Fuc(a1-2)Gal(b1-4)GlcNAc(b1-2)Man(a1-3)[Fuc(a1-2)Gal(b1-4)GlcNAc(b1-2)Man(a1-6)]Man(b1-4)GlcNAc(b1-4)GlcNAc
# How it was run: as §1
# [28] = target: Fuc(a1-2)Gal(b1-4)GlcNAc(b1-2)Man(a1-3)[Fuc(a1-2)Gal(b1-4)GlcNAc(b1-2)Man(a1-6)]Man(b1-4)GlcNAc(b1-4)[Fuc(a1-6)]GlcNAc
# How it was run: as §1
# [29] = target: Fuc(a1-2)Gal(b1-4)GlcNAc(b1-2)[Fuc(a1-2)Gal(b1-4)GlcNAc(b1-4)]Man(a1-3)[Fuc(a1-2)Gal(b1-4)GlcNAc(b1-2)Man(a1-6)]Man(b1-4)GlcNAc(b1-4)GlcNAc
# How it was run: as §1
# [30] = target: Fuc(a1-2)Gal(b1-4)GlcNAc(b1-3)Gal(b1-4)GlcNAc
# How it was run: as §1
# [31] = target: Fuc(a1-2)Gal(b1-4)GlcNAc(b1-3)Gal(b1-4)GlcNAc(b1-2)Man(a1-3)[Fuc(a1-2)Gal(b1-4)GlcNAc(b1-3)Gal(b1-4)GlcNAc(b1-2)Man(a1-6)]Man(b1-4)GlcNAc(b1-4)GlcNAc
# How it was run: as §1
# [32] = target: Fuc(a1-2)Gal(b1-4)GlcNAc(b1-3)Gal(b1-4)GlcNAc(b1-3)Gal(b1-4)GlcNAc
# How it was run: as §1
# [33] = target: Fuc(a1-2)Gal(b1-4)GlcNAc(b1-3)GalNAc
# How it was run: as §1
# [34] = target: Fuc(a1-2)Gal(b1-4)GlcNAc(b1-3)[Fuc(a1-2)Gal(b1-4)GlcNAc(b1-6)]GalNAc
# How it was run: as §1
# [35] = target: Fuc(a1-2)Gal(b1-4)GlcNAc(b1-3)[Fuc(a1-3)[Gal(b1-4)]GlcNAc(b1-6)]Gal(b1-4)Glc
# How it was run: as §1
# [36] = target: Fuc(a1-2)Gal(b1-4)GlcNAc(b1-6)GalNAc
# How it was run: as §1
# [37] = target: Fuc(a1-2)Gal(b1-4)GlcNAc6S
# How it was run: as §1
binder,measurement,setting,value
CpGal16 (Clavelina picta) (protein) MAKMITNYVGKRIECIMVATDMMSTVFSLASATGDLPFYINFRQRENSIVMNTRVHGKWQYEKSQSSGGMNFYEPFRLVVEVRPSVFKVTVSTMGEEDGITFNLQYSQITIKPDEIVAMHLGYCNLRSELLVTDL,glycan array binding signal (z-score),[1],-0.237
same,glycan array binding signal (z-score),[2],-0.345
same,glycan array binding signal (z-score),[3],0.334
same,glycan array binding signal (z-score),[4],-0.167
same,glycan array binding signal (z-score),[5],-0.325
same,glycan array binding signal (z-score),[6],-0.475
same,glycan array binding signal (z-score),[7],-0.319
same,glycan array binding signal (z-score),[8],2.93
same,glycan array binding signal (z-score),[9],1.06
same,glycan array binding signal (z-score),[10],-0.123
same,glycan array binding signal (z-score),[11],3.11
same,glycan array binding signal (z-score),[12],1.56
same,glycan array binding signal (z-score),[13],1.36
same,glycan array binding signal (z-score),[14],2.79
same,glycan array binding signal (z-score),[15],1.52
same,glycan array binding signal (z-score),[16],1.07
same,glycan array binding signal (z-score),[17],-0.399
same,glycan array binding signal (z-score),[18],-0.309
same,glycan array binding signal (z-score),[19],-0.402
same,glycan array binding signal (z-score),[20],-0.394
same,glycan array binding signal (z-score),[21],-0.37
same,glycan array binding signal (z-score),[22],-0.35
same,glycan array binding signal (z-score),[23],0.666
same,glycan array binding signal (z-score),[24],3.43
same,glycan array binding signal (z-score),[25],-0.249
same,glycan array binding signal (z-score),[26],-0.228
same,glycan array binding signal (z-score),[27],0.648
same,glycan array binding signal (z-score),[28],-0.355
same,glycan array binding signal (z-score),[29],-0.375
same,glycan array binding signal (z-score),[30],1.23
same,glycan array binding signal (z-score),[31],2.5
same,glycan array binding signal (z-score),[32],1.16
same,glycan array binding signal (z-score),[33],-0.083
same,glycan array binding signal (z-score),[34],-0.338
same,glycan array binding signal (z-score),[35],1.79
same,glycan array binding signal (z-score),[36],-0.267
same,glycan array binding signal (z-score),[37],0.706
